Experimental findings from PubChem BioAssay AID488969 (Vanderbilt High Throughput Screening Facility, 2010) are described below.

The structures appear in SMILES notation. Over roughly 110,000 compounds, “z-score” has its median near -0.1; the highest 2% begin near 2. Some of the results follow. Activity calls are given as the source filed them.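 How the source made its calls: active means z-score in the third read window above 3 or below -3; inactive means the rest.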

The test deals with Metabotropic glutamate receptor 8 (Rattus norvegicus) (UniProt P70579). Kind of test: rat mGluR8 modulators via GIRK flux, primary screen, cell-based, thallium flux, HTS (AID 488969). Particulars: HEK293 rat mGluR8, GIRK (G protein-gated inwardly rectifying potassium channel) thallium flux, FluoZin2; at 10 µM; stronger effect = higher value; submaximal glutamate (EC20) added with thallium.
Sequence of UniProt P70579 (P70579 whole entry, looked up): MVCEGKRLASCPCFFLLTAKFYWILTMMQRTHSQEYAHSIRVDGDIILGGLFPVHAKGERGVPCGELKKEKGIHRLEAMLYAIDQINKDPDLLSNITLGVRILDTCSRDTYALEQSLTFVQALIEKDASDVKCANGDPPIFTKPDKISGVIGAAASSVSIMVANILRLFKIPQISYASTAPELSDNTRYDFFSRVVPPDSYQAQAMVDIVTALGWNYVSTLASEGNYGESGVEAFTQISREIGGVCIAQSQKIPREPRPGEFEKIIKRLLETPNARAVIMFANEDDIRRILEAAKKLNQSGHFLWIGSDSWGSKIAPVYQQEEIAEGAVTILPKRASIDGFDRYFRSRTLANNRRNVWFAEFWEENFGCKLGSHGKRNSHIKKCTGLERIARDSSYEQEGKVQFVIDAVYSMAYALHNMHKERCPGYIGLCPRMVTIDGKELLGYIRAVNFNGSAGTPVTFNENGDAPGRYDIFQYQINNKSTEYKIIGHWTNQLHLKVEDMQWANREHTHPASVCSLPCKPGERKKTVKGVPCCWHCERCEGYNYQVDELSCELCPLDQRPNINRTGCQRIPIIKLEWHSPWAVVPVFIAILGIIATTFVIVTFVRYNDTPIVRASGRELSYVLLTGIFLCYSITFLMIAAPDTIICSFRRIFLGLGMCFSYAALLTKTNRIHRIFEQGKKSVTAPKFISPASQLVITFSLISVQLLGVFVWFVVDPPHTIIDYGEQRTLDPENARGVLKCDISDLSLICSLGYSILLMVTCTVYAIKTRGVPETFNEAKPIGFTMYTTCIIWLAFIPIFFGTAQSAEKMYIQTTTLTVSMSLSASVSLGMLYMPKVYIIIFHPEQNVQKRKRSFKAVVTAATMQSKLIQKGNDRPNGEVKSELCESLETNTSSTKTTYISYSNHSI
`NC(=O)C1(N2CCCCC2)CCN(C(=S)Nc2ccccc2)CC1` gave a z-score of -0.163.

`COc1ccc(NC(=O)C2CCN(C(=O)c3cccs3)CC2)c(OC)c1`: the z-score was -0.342.

As for `Cn1nnc2cc(C(=O)Nc3cccnc3)ccc21`, the z-score is -0.208.

`CCCCNC(=O)CCc1nc2cccnc2n1Cc1ccc(OC)cc1`: the z-score came out at 0.0056.

As to `O=C(NC1=NCCS1)c1ccc(OCC2CCCO2)cc1` (stereo unspecified), the z-score was -0.511.

Take `Fc1ccc(N2CCN(C(c3cccs3)c3nnnn3CCc3ccccc3)CC2)cc1` (stereo unspecified): the z-score is -0.0527.

`Nc1c(C(=O)NCc2ccccc2)sc2nc3c(cc12)C(=O)CCC3` yielded a z-score of -0.298.

`COc1ccc(N/C=C/C(=O)c2ccc(Oc3ncccn3)cc2)cc1` registered a z-score of -0.161.

In turn, `COC(=O)/C=c1/sc2nc3ccccc3n2c1=O` registered a z-score of -0.0905.

The compound `CCCc1cc(=O)[nH]c(SCC(=O)c2cc(C)n(CCC)c2C)n1` gave a z-score of -0.328.

`CCOc1ccc2oc(C(=O)OCC(=O)NC(=O)NC3CCCC3)c(C)c2c1`: the z-score was -0.038.

In the case of `O=C(CO/N=C/c1cccc([N+](=O)[O-])c1)NC1CCCCC1`, the z-score is -0.0598.

`CCOC(=O)C1=C(C)NC2=C(C(=O)CC(c3cccs3)C2)C1c1cccs1` (stereo unspecified): the z-score is -0.639.

With `COc1ccc(-c2nnc(Nc3nc4c(OC)cccc4s3)o2)cc1`, the z-score is active: 17.1.

The compound `CN(CCCNS(=O)(=O)c1cccc2cccnc12)Cc1ccccc1` returned a z-score of 0.0546.

As for `CCCC(C)NC(C)C(=O)NC1CCCC1` (stereo unspecified), the z-score is -0.234.

The compound `O=S(=O)(c1cccc2cccnc12)N(CCO)CCO` gave a z-score of 1.05.

In the case of `COc1ccc(C2CC(=O)c3cnc(NC(=O)c4ccccc4OC)nc3C2)c(OC)c1` (stereo unspecified), the z-score is -0.471.

In the case of `CCOc1ccc(C(=O)Nc2c3c(nn2-c2cccc(C)c2C)CS(=O)C3)cc1` (stereo unspecified), the z-score is -0.371.

`Cc1cccc(-c2nc(=S)c3c(o2)CCCC3)c1` displayed a z-score of 0.856.

`O=C(Nc1cc(Cl)ccc1Oc1ccccc1)c1ccc(F)cc1` returned a z-score of -0.256.

In turn, `Cc1cccc(C)c1NC(=O)c1cc(S(=O)(=O)N2CCOCC2)ccc1F` returned a z-score of -0.0718.

Compound `COC(=O)c1ccc(Cl)c(NC(=O)c2ccc(-c3ccccc3)cc2)c1` gave a z-score of -0.1.

On to `CCN1CCN(Cc2c(C)[nH]c3ccc(OC)cc3c2=O)CC1`, for which the z-score worked out at 0.46.

For `COc1cc(NC(=O)C2CC2)c(C(=O)O)cc1OC`, the z-score was found to be 0.363.

For the compound `Cc1cc(C)cc(NC(=O)Cn2c(=O)oc3cc(S(=O)(=O)N4CC(C)CC(C)C4)ccc32)c1` (stereo unspecified), the z-score was found to be 0.103.

Compound `CCOc1cc(C(=O)Nc2nnc(CC)s2)ccc1OCC(=O)N1CCOCC1` had a z-score of 0.0228.

Compound `CCC(=O)c1cc(-c2nc3ccccc3n2C)n(C)c1` had a z-score of 0.351.

Regarding `Cc1cc(C)n2c(Nc3ccc4c(c3)OCCO4)c(-c3ccco3)nc2n1`, the z-score was -0.231.

For `CCC(=O)N(Cc1cc2ccc(C)cc2n2nnnc12)C1CCCCC1`, the z-score was -0.401.

Compound `COc1ccc(CCC(=O)Nc2ccc3c(c2)OCCO3)cc1` yielded a z-score of 0.397.

The compound `O=C(CSCc1ccc(Cl)cc1)Nc1cccc(C(=O)Nc2ccccc2C(=O)O)c1` gave a z-score of -0.71.

`CCOc1ccc(C(=O)NCCN(C)C)cc1` showed a z-score of 0.509.

Consider `O=C(CSc1nnc2ncccn12)N1CCCCCC1`, for which the z-score is 1.25.

`Nc1nc2n(n1)C(c1cccs1)CC(c1ccc(Br)cc1)N2` (stereo unspecified) gave a z-score of 1.18.

Take `Cc1ccc(Sc2c(C#N)c(-c3ccccc3)nn2C)cc1`: the z-score is -0.0404.

As to `CCCn1c(SCC(=O)NC2CCCCC2C)n[nH]c1=O` (stereo unspecified), the z-score was 0.79.

Turning to `Cc1ccc(Oc2nn[nH]n2)cc1`, the z-score was -0.0764.

For `Cc1csc2nc(CSc3nc4ccccc4o3)cn12`, the z-score came to 0.00634.

For `Cc1cc(O)c(NC(=O)c2ccco2)cc1C`, the z-score was -0.0409.

As for `O=C(CCN1CCCC1Cc1ccccc1)c1ccc2c(c1)OCCO2` (stereo unspecified), the z-score was found to be 0.409.

`CCC1CCCCN1C(=O)Cn1c(C(=O)OC)cc2ccsc21` (stereo unspecified) displayed a z-score of 0.356.

As for `CN(C)c1ccc(/C=C(\C#N)c2ccccn2)cc1`, the z-score was -0.0409.

Compound `O=C(NCN1CCN(c2ccccc2F)CC1)c1cccnc1` had a z-score of 0.0601.

For the compound `CCn1cc(C(=O)O)c(=O)c2cc(F)c(N3CCN(S(=O)(=O)c4ccc(NC(C)=O)cc4)CC3)cc21`, the z-score was -0.428.

`COc1cccc(CN2CCCC(C(=O)N3CCCCC3)C2)c1OC` (stereo unspecified) came in with a z-score of 0.0909.

`O=C(c1ccc2ccccc2c1)N1CCN(c2ccc(O)cc2)CC1` yielded a z-score of -0.227.

For `Cc1ccc(S(=O)(=O)N2CCOCC2)cc1C(=O)OCC(=O)N1CCc2ccccc2C1`, the z-score was -0.258.

With `Cc1ccccc1-c1nc(CS(=O)(=O)CC(=O)N2CCc3ccccc3C2)c(C)o1`, the z-score amounted to 0.753.

`CC(=O)NCc1cccc(CNC(C)=O)n1` had a z-score of 0.231.

`Cc1ccn2c(C(=O)CSc3ccc(Cl)cc3Cl)c(C)nc2c1` registered a z-score of -1.02.

Consider `COc1ccc(-c2c(C#N)c(N)nc3c2c(=O)n(C)c(=O)n3C)cc1`, for which the z-score is -0.978.

In turn, `CC(C)OC(=O)CN1C(=O)S/C(=C/c2ccc(N3CCCCC3)o2)C1=O` showed a z-score of 0.0366.

In turn, `CCS(=O)(=O)N1Cc2ccccc2CC1C(=O)Nc1nc2c(C)cccc2s1` (stereo unspecified) registered a z-score of 0.537.

In turn, `Cn1c(=O)n(CCc2ccccc2)c(=O)c2c1nc1n2CCCN1CCc1ccccc1` returned a z-score of -1.85.

Consider `CNC(=O)c1snnc1-c1ccccc1`, for which the z-score was -0.0688.

Compound `CC1(C)Oc2ccc(C(=O)NC3CCCC3)cc2N(CC(=O)NC2CCCCC2)C1=O` yielded a z-score of 0.138.

For `O=C(c1ccc(Cn2c(=O)[nH]c3ccccc3c2=O)cc1)N1CCN(c2ccccc2)CC1`, the z-score is -0.342.

In turn, `CCOC(=O)N1CCN(C(=O)Cn2c(C)cc3ccccc3c2=O)CC1` registered a z-score of 0.171.

`Cc1ccc(C)c(N/N=C2\CCCNC2=O)c1` had a z-score of -0.226.

Consider `CCc1c(O)nc(N2CCN(Cc3ccccc3)CC2)[nH]c1=O`, for which the z-score amounted to 0.961.

The compound `CN1CCc2c(OCC(=O)N3N=C(c4cccs4)CC3c3ccc(F)cc3)cccc2C1=O` (stereo unspecified) came in with a z-score of -0.343.

`COc1ccc(/C=C/C(=O)c2ccc(NS(=O)(=O)c3ccc(C)cc3)cc2)cc1O` displayed a z-score of -0.47.

With `COc1ccc(OC)c(NC(=O)c2nnn(Cc3ccc(Br)cc3F)c2N)c1`, the z-score was -0.452.

For `Cc1noc(C)c1CSc1nnc2sc3ccccc3n12`, the z-score is -0.648.

The compound `CCCn1c(NCc2ccco2)nc2c1c(=O)n(C)c(=O)n2C` had a z-score of -0.0985.

`COC(=O)C1=C(C)NC2=C(C(=O)C(C(=O)OC)C(c3ccc(OC)cc3)C2)C1c1ccccn1` (stereo unspecified) displayed a z-score of 0.317.

Consider `CCOC(=O)c1c(NC(=O)COc2ncnc3ccccc23)sc(C)c1CC`, for which the z-score is -0.192.

Turning to `COc1ccc(-c2nn[nH]n2)cc1OC`, the z-score turned out to be 0.0499.

`CCOc1ccc2[nH]c(=O)c(CN(Cc3ccco3)C(=O)c3cccc(F)c3)cc2c1` registered a z-score of -0.241.

In turn, `CC(C)c1cc(C(N)=O)c(NC(=O)c2cccc(COc3ccc(Br)cc3)c2)s1` yielded a z-score of -0.147.

As for `O=C1CN(C(=O)COC(=O)c2ccc(N3CCCCCC3)c([N+](=O)[O-])c2)c2ccccc2N1`, the z-score came out at 0.0607.

As for `CC12CCC(C(=O)Nc3cc(Cl)ccc3Cl)(C(Br)C1=O)C2(C)C` (stereo unspecified), the z-score was -0.159.

Compound `CCn1cc(C(=O)NCCC2=CCCCC2)c(=O)c2cc(S(=O)(=O)N(C)C)ccc21` yielded a z-score of -0.515.

As to `CCOC(=O)N1CCN(Cc2nc3c(c(=O)n(C)c(=O)n3C)n2Cc2ccccc2C)CC1`, the z-score was -0.27.

Turning to `CCN=c1scc(-c2ccccc2)n1/N=C/c1ccccn1`, the z-score is -0.0993.

`FC(F)(F)c1ccc(Oc2ccc3cc(Br)ccc3c2)nc1` yielded a z-score of 0.226.

Take `COc1ccc2c(c1)OC/C(=C/c1cccs1)C2=O`: the z-score worked out at 0.0336.

Take `S=c1[nH]cc(-c2ccccc2)n1-c1ccccc1`: the z-score was found to be 0.267.

Turning to `CCn1c(=O)n(-c2ccc(Cl)cc2)c(=O)c2c3c(sc21)COC(C)(C)C3`, the z-score was -1.07.

`C=CCOc1ccc(/C(O)=C2\C(=O)C(=O)N(CCOC)C2c2cccnc2)cc1` (stereo unspecified) had a z-score of -0.0824.

Turning to `CN(C)c1nc2sc3c(c2c(=O)n1C)CC(C)(C)OC3`, the z-score turned out to be 0.532.

For `COc1ccc([N+](=O)[O-])cc1NS(=O)(=O)c1ccccc1`, the z-score is -0.8.

`Nc1nc(-c2cccnc2)nn1C(=O)COc1ccccc1` showed a z-score of -0.135.

`COc1ccccc1N1CCN(Cc2nnnn2CCc2ccccc2)CC1` returned a z-score of -0.0559.

Regarding `CCOc1ccccc1C1C2CCCCC2(O)CCN1C(=O)c1cccs1` (stereo unspecified), the z-score was -0.578.

For `CCOC(=O)C1=C(N)Oc2c(c(=O)[nH]c3ccccc23)C1c1ccccc1` (stereo unspecified), the z-score is -0.487.

`COc1cc(NC(=O)c2ccco2)c(OC)cc1NC(=O)Nc1ccc(Cl)cc1` came in with a z-score of -0.139.

In the case of `O=C(CSc1nc2c(cnn2-c2ccc(F)cc2)c(=O)[nH]1)N1CCOCC1`, the z-score worked out at 0.476.

With `O=C(Nc1nnc(-c2ccc3c(c2)CCCC3)o1)C1CCCCC1`, the z-score was -0.309.

As for `Cc1cccc(NC(=O)CSc2nnc(-c3ccccc3)n2N)c1C`, the z-score stood at 0.2.

The compound `OC(COc1ccc(C2C=CCC2)cc1)CN1CCCCC1` (stereo unspecified) yielded a z-score of 1.19.

As to `CCN1CCN(c2c(Cl)cccc2NC(=O)c2ccco2)CC1`, the z-score was -0.163.

In turn, `CCc1ccc(C(=O)CSc2n[nH]c(-c3ccncc3)n2)cc1` displayed a z-score of -0.0279.

Consider `COc1ccc(-c2noc(C3CCCN(S(=O)(=O)c4ccc(C)c(Cl)c4)C3)n2)cc1OC` (stereo unspecified), for which the z-score is -0.0247.

`CN(CC(=O)Nc1ccccc1C(=O)N1CCCC1)S(=O)(=O)c1ccc(Br)cc1` gave a z-score of -0.477.

`COc1cc(-n2c(=O)c3ccccc3n(Cc3ccccc3)c2=O)cc(OC)c1OC` returned a z-score of -0.047.

Turning to `COc1ccccc1N1CC(O)=C(c2nc3ccccc3c(=O)[nH]2)C1=N`, the z-score is -0.243.

On to `COc1ccccc1C(=O)OCc1c(F)cccc1Cl`, for which the z-score was -0.429.

In the case of `CCOc1ccc2cc(C(=O)c3ccccc3)c(=O)oc2c1`, the z-score was -0.201.

In turn, `Cc1ccc(S(=O)(=O)NCc2ccc(C(=O)N3CCN(Cc4ccccc4)CC3)cc2)cc1` yielded a z-score of 0.979.

The compound `COCCN1C(=O)c2ccccc2C(C(=O)N2CCN(c3ccccn3)CC2)C1c1ccc(F)cc1` (stereo unspecified) gave a z-score of -0.0819.

`Cc1nc(NC2=NCN(CC3CCCO3)CN2)nc2ccccc12` (stereo unspecified) returned a z-score of 0.234.

In turn, `C=CCn1c(SCCOc2ccccc2)nnc1C(C)NC(=O)c1ccccc1` (stereo unspecified) displayed a z-score of -0.293.

`COc1ccc(S(=O)(=O)c2ccc(O)cc2)cc1` gave a z-score of -0.766.

`O=C(CC1(O)C(=O)Nc2ccccc21)c1ccccc1` (stereo unspecified): the z-score was -0.202.

For `Cc1cc(C)c(NC(=O)c2ccccc2CCc2ccccc2)c(C)c1`, the z-score was -0.209.

`C=CCOc1ccc(CNC(C)(C)CO)cc1OC` had a z-score of 0.0461.

Turning to `CCCOc1ccc(C(C)=O)cc1CC(C(N)=O)C(N)=O`, the z-score is -0.278.

The compound `COc1ccc(-c2nnc3sc(-c4ccco4)nn23)cc1OC` yielded a z-score of 0.194.

In turn, `O=C(Cn1ncc2c(=O)oc3ccccc3c21)NCC1COc2ccccc2O1` (stereo unspecified) had a z-score of -0.548.
